Measured values published in the supplement of paper PMC7826260.
The other results are listed elsewhere or left out. Each Rep nickase domain was tested in vitro on the same pool of single strands (1 h at 37 °C, 3 µM enzyme); the outer parts of the 90-letter strands are left off. Values are log2 of uncut reads against the no-enzyme pool; the lower, the more was cut; hits are not called. Reads are scaled to the total; where an enzyme cuts many sequences, the uncut ones exceed 0.

How the values were obtained:
Test in all cases: uncleaved DNA left, log2 of reads against the no-enzyme library (log2 ratio); higher = less cleavage (more negative = more Rep cleavage of the k-mer); sequences stand for … in CTCGTCCG…ACCGGAGA
[1] = test system: T1, Rep nickase domain of Muscovy duck circovirus
T1 sequence (residues 1-111 of Rep, tag left off): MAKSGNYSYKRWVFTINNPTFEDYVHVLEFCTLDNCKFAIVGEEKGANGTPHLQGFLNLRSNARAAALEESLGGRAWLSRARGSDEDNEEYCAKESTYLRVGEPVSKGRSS
Method: (§1)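 A pool of 90-nt single-stranded DNAs with seven random bases just before the constant AC of the nick site (name = the seven bases) was cut by 3 µM recombinant His6-SUMO-tagged Rep nickase domain (300 nM DNA, 50 mM HEPES pH 8.0, 50 mM NaCl, 1 mM MnCl2, 1 h, 37 °C, three replicates). Uncut DNA was amplified and sequenced.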

[2] = test system: T2, Rep nickase domain of banana bunchy top virus
T2 sequence (residues 1-94 of Rep, tag left off): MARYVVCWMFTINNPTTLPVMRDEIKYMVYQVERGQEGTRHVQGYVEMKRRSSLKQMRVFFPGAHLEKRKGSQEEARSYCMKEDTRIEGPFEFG
Method: as §1

[3] = test system: T3, Rep nickase domain of cabbage leaf curl virus
T3 sequence (residues 1-116 of Rep, tag left off): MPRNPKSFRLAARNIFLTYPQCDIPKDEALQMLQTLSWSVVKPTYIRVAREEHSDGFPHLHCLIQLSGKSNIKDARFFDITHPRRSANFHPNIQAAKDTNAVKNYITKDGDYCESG
Method: as §1

[4] = test system: T4, Rep nickase domain of chickpea chlorotic dwarf virus
T4 sequence (residues 1-124 of Rep, tag left off): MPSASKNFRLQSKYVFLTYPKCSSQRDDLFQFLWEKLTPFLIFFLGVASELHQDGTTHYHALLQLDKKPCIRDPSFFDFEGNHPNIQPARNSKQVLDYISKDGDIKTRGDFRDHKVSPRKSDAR
Method: as §1

[5] = test system: T5, Rep nickase domain of faba bean necrotic yellows virus
T5 sequence (residues 1-98 of Rep, tag left off): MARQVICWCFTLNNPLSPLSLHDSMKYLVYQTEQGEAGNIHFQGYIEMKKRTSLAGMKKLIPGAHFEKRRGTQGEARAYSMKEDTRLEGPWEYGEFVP
Method: as §1

[6] = test system: T6, Rep nickase domain of maize striate mosaic virus
T6 sequence (residues 1-117 of Rep, tag left off): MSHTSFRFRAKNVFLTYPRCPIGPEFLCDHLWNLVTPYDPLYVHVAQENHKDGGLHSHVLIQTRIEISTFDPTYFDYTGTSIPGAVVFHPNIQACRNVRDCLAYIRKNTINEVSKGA
Method: as §1

[7] = test system: T7, Rep nickase domain of porcine circovirus 2
T7 sequence (residues 2-116 of Rep, tag left off): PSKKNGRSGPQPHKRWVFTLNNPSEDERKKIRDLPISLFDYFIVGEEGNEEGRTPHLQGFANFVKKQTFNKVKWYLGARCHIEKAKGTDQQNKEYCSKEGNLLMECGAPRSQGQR
Method: as §1

[8] = test system: T8, Rep nickase domain of tomato golden mosaic virus
T8 sequence (residues 1-124 of Rep, tag left off): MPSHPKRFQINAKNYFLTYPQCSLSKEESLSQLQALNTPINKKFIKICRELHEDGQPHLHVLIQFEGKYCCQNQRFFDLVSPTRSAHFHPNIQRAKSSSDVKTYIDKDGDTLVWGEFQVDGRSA
Method: as §1

[9] = test system: T9, Rep nickase domain of tomato yellow leaf curl virus
T9 sequence (residues 1-136 of Rep, tag left off): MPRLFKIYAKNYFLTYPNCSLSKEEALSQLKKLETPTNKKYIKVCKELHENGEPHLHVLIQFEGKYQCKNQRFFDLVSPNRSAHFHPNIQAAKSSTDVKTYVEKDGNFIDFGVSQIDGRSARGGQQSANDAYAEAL
Method: as §1

[10] = test system: T10, Rep nickase domain of wheat dwarf virus
T10 sequence (residues 1-137 of Rep, tag left off): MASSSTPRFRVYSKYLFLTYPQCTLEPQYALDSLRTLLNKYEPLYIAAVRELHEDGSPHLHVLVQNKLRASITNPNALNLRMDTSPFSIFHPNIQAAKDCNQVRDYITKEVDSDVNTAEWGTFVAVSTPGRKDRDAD
Method: as §1

Sequence | uncleaved DNA left (log2) [1] | uncleaved DNA left (log2) [2] | uncleaved DNA left (log2) [3] | uncleaved DNA left (log2) [4] | uncleaved DNA left (log2) [5] | uncleaved DNA left (log2) [6] | uncleaved DNA left (log2) [7] | uncleaved DNA left (log2) [8] | uncleaved DNA left (log2) [9] | uncleaved DNA left (log2) [10]
GAAGGGT | 0.0765 | 0.177 | 0.348 | 1.49 | 0.00807 | 1.84 | 0.19 | 0.158 | -0.0114 | -0.0137
TCTATCC | -0.0684 | -0.0805 | 0.151 | -0.113 | 0.0176 | -0.212 | 0.0357 | -0.0735 | 0.00929 | 0.013
TTCCGCT | -0.142 | -0.214 | -0.375 | -1.22 | -0.0941 | -1.3 | -0.166 | -0.226 | -0.209 | -0.168
GTACGCT | -0.0968 | 0.0508 | 0.132 | 0.0517 | -0.00206 | 0.804 | -0.00253 | 0.0955 | -0.13 | -0.0438
GGTTGTG | 0.13 | 0.0187 | -0.643 | 0.108 | -0.0435 | -0.525 | 0.176 | 0.00345 | 0.0679 | -0.0453
CGACGCT | -0.0869 | -0.0794 | -0.126 | 0.0197 | -0.074 | 0.581 | -0.101 | -0.181 | -0.115 | -0.0229
CGGAATC | -0.0625 | -0.0898 | 0.0854 | 0.546 | -0.123 | 0.246 | -0.0981 | -0.219 | -0.0855 | 0.0506
TTATCGT | -0.143 | 0.0495 | -0.47 | -0.901 | 0.0397 | -1.02 | -0.152 | -0.00971 | 0.151 | -0.0107
TGCTGAG | 0.112 | -0.142 | -0.471 | -0.0909 | 0.175 | -1.08 | 0.254 | -0.0322 | -0.0421 | 0.0808
TGCCCAT | 0.0297 | -0.0572 | 0.257 | 0.0851 | -0.174 | 0.0425 | -0.0391 | -0.09 | -0.0305 | 0.115
ATCGTAC | 0.0669 | -0.125 | -0.156 | -0.595 | -0.0462 | -0.772 | 0.0367 | -0.0206 | 0.0766 | -0.0521
GAAAACC | -0.0964 | 0.0253 | 0.0853 | -0.202 | -0.0501 | 0.333 | -0.191 | -0.0527 | -0.0747 | -0.0261
ATGGTTG | 0.0162 | 0.00569 | 0.0237 | 0.33 | -0.00611 | 0.0213 | 0.103 | 0.106 | -0.0364 | -0.0241
TCGCTGA | -0.0377 | -0.0932 | 0.258 | 0.7 | -0.00246 | 1.13 | 0.0457 | -0.0992 | -0.116 | 0.0677
GCAATCT | 0.0464 | 0.0274 | -0.233 | -1.19 | -0.0113 | -0.159 | -0.135 | 0.00844 | -0.0311 | 0.0498
